Data from the supplement of paper PMC10126150.
Sequences with one replicate were seen in a single cluster, so their values are uncertain.

Tested on: ATP
Assay: switch fluorescence ratio, 500 uM ATP over buffer (Cy3 cluster intensity, sum of 5 cycles each) (fold (ratio)); higher = stronger signal-on switching upon ATP binding; sequences stand for … in TCGTCGGCAGCGTCAGATGTGTATAAGAGACAGTTTTTTTTTTTTTTTTTTTTTTTTT…TC
Conditions: aptamer strand: ATP DNA aptamer (quencher-CACCTGGGGGAGTATTGCGGAGGAAGG + anchor), 100 nM annealed; ATP concentration: 500 uM; one replicate
In short: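 Clusters with intensities outside 100-1000 RFU were excluded. The remaining Cy3-labelled switching-strand clusters on a modified Illumina MiSeq flow-cell had been annealed to 100 nM quencher-labelled ATP aptamer and imaged in selection buffer, then after 15 min with 500 uM ATP at 22 °C, for five cycles separated by NaOH stripping and re-annealing. The fluorescence ratio, averaged per switch-domain sequence, is each cluster's summed target-cycle Cy3 intensity over its summed buffer-cycle Cy3 intensity.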
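Further: ATP exposure 15 min at 22 °C before imaging.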

TGTCTAAAGC
switch fluorescence ratio: 0.96

GTGTTTGTTT
switch fluorescence ratio: 0.958

ATCTCCATCA
switch fluorescence ratio: 0.977

GGTATGAACA
switch fluorescence ratio: 0.996

ACTCGACATA
switch fluorescence ratio: 1.19

ATTTGCGTTG
switch fluorescence ratio: 1.02

GGTACTCCG
switch fluorescence ratio: 1.06

GCGGTGTACG
switch fluorescence ratio: 0.985

TTTTCTATCC
switch fluorescence ratio: 1.06

TCTGGCGCGG
switch fluorescence ratio: 1.05

GCGCTTATGG
switch fluorescence ratio: 1

AAGCCGGTGA
switch fluorescence ratio: 1.24

AAATTGGAAA
switch fluorescence ratio: 0.956

TCTAGTAGAT
switch fluorescence ratio: 0.974

TATGCATCAT
switch fluorescence ratio: 1.02

CTAAGGTGAG
switch fluorescence ratio: 1.03

TGTAGTGAGG
switch fluorescence ratio: 0.969

CACTTGAGG
switch fluorescence ratio: 1.02

GTCGGATTTT
switch fluorescence ratio: 1.01

GTCCCACGGT
switch fluorescence ratio: 1.11

TTTGATTG
switch fluorescence ratio: 1.02

GAATTGATAC
switch fluorescence ratio: 1.05

CTTGAAGGTT
switch fluorescence ratio: 1.01

GCGTAACCTT
switch fluorescence ratio: 1.44

CAAAGGGCTG
switch fluorescence ratio: 0.992

GGCGAACGCG
switch fluorescence ratio: 1.01

AAGAGTGGGT
switch fluorescence ratio: 0.985

GATAAGGCTT
switch fluorescence ratio: 0.994

CAGACCATCC
switch fluorescence ratio: 2.16

ATTGGCGGGT
switch fluorescence ratio: 1.01

GCAAGTTAAG
switch fluorescence ratio: 1.02

GCTGACATGA
switch fluorescence ratio: 0.948

GCGCTATCGC
switch fluorescence ratio: 1.03

ATTTGTTGAG
switch fluorescence ratio: 0.946

CTAATAGGG
switch fluorescence ratio: 0.94

AGGGCTGCGA
switch fluorescence ratio: 0.99

TCGACGTTAG
switch fluorescence ratio: 1.05

GCCAAGTATA
switch fluorescence ratio: 1

TTACAATTGT
switch fluorescence ratio: 1

CGACGTAACT
switch fluorescence ratio: 1.43

CAGGTAATCT
switch fluorescence ratio: 1.02

CGCCACACTT
switch fluorescence ratio: 1.11

GCTATCAGGA
switch fluorescence ratio: 1.02

GCACGAGAGT
switch fluorescence ratio: 1.05

TTAGTCTACG
switch fluorescence ratio: 1.03

TTCGGCAAGA
switch fluorescence ratio: 1.46

TTATGGCCG
switch fluorescence ratio: 0.865

ACGGAC
switch fluorescence ratio: 1.39

CTTCGCGGGT
switch fluorescence ratio: 3.4

TTGACCTAAC
switch fluorescence ratio: 1.36

TCCATCTTA
switch fluorescence ratio: 0.978

AAGTCTCTGG
switch fluorescence ratio: 1.01

GACGACGGTA
switch fluorescence ratio: 1.62

ATTGATGGG
switch fluorescence ratio: 0.996

TGGCAGTTAG
switch fluorescence ratio: 1.01

CTATACAAGA
switch fluorescence ratio: 1.03

GGCATTTCGT
switch fluorescence ratio: 1.07

CATACAGAGT
switch fluorescence ratio: 1

GTGTCACACA
switch fluorescence ratio: 1.06

TTCATGAACC
switch fluorescence ratio: 0.986

ATGTCGGCGA
switch fluorescence ratio: 1.03

AGATTACAGC
switch fluorescence ratio: 1

GTGACTTATA
switch fluorescence ratio: 1.04

ATGGTGGTTG
switch fluorescence ratio: 1.01

GGAATATGTA
switch fluorescence ratio: 1

TGAACGTTAC
switch fluorescence ratio: 1.6

GAAATGTATG
switch fluorescence ratio: 0.99

AATATGAGTT
switch fluorescence ratio: 1.01

GTTGCCTGCG
switch fluorescence ratio: 1.01

ATTCATCTAC
switch fluorescence ratio: 0.977

ATAGACCCGC
switch fluorescence ratio: 1.06

AAGTGTAGA
switch fluorescence ratio: 1

TCTAGGGGAA
switch fluorescence ratio: 1.01

CAACTAAATG
switch fluorescence ratio: 1.01

TTAAACCACT
switch fluorescence ratio: 1.05

GTTGTCATTT
switch fluorescence ratio: 1.04

CCTCCATCAA
switch fluorescence ratio: 1.53

ATCTGTTGTA
switch fluorescence ratio: 1.01

TAAAGGTCCG
switch fluorescence ratio: 1.1

AGCTGGTAGA
switch fluorescence ratio: 1.05

TCTTAGATCA
switch fluorescence ratio: 1.01

AGTGTTAAAG
switch fluorescence ratio: 1.03

GTGAGTACGT
switch fluorescence ratio: 0.976

GTCCTGAGGT
switch fluorescence ratio: 1.03

CTCAGTGTGT
switch fluorescence ratio: 1.08

TTTTAGCGG
switch fluorescence ratio: 1.01

AGGAATGTGT
switch fluorescence ratio: 0.917

GACTGTGGGC
switch fluorescence ratio: 0.991

ATCTATGTGT
switch fluorescence ratio: 0.977

TTAACGTAA
switch fluorescence ratio: 1.25

GACTTGATTT
switch fluorescence ratio: 1.02

TGACGTGATG
switch fluorescence ratio: 0.988

AGAGGGGATC
switch fluorescence ratio: 1.03

TCTTAAGACT
switch fluorescence ratio: 1.02

TCGCTTCTTT
switch fluorescence ratio: 1.11

AGTAAGGCGG
switch fluorescence ratio: 0.951

TGGCAAGCTG
switch fluorescence ratio: 1.05

ACAGACAGTC
switch fluorescence ratio: 0.804

CCTATTTGGG
switch fluorescence ratio: 0.983

CCAGCCCCAA
switch fluorescence ratio: 1.55

ACTGTCAC
switch fluorescence ratio: 1.43

GCCAGGAAGC
switch fluorescence ratio: 0.952

CTCACCGTAA
switch fluorescence ratio: 2.68

AACTTTGTCT
switch fluorescence ratio: 0.997

ACGCTTTGTT
switch fluorescence ratio: 1.06

GTTAAACGAA
switch fluorescence ratio: 0.978

TCGGAACCCC
switch fluorescence ratio: 1.02

CTGTTCCGCG
switch fluorescence ratio: 1.21

TGTGTCGGTT
switch fluorescence ratio: 0.967

TTCGCCGAGA
switch fluorescence ratio: 0.992

TGAGTTCATT
switch fluorescence ratio: 0.979

TTTACCTCTC
switch fluorescence ratio: 1.04

ATCGGTCACA
switch fluorescence ratio: 0.981

GCAGATCCAC
switch fluorescence ratio: 1.13

TGCTGACATG
switch fluorescence ratio: 0.978

CACTTGATGG
switch fluorescence ratio: 1.01

GATCTTTGGG
switch fluorescence ratio: 1

GCAAGGAACG
switch fluorescence ratio: 1.02

GGTAAGTGGG
switch fluorescence ratio: 0.981

CCTTCCGACG
switch fluorescence ratio: 1.11

ATTTCTCGAT
switch fluorescence ratio: 0.987

GCGATAGGGA
switch fluorescence ratio: 0.971

ATAAAATCAT
switch fluorescence ratio: 0.991

GGAATCCAGT
switch fluorescence ratio: 0.975

GATGCCAGCG
switch fluorescence ratio: 0.949

CAAAAGGCCT
switch fluorescence ratio: 1.01

AAAATGTTAA
switch fluorescence ratio: 1.02

CGATCCAACG
switch fluorescence ratio: 0.993

GGCCCAAGCT
switch fluorescence ratio: 0.988

TGGGGTAATA
switch fluorescence ratio: 1.01

TTAGACGTGT
switch fluorescence ratio: 0.983

GGGGTAACTT
switch fluorescence ratio: 1.02

GTTGCTTGGG
switch fluorescence ratio: 1

AGGGCCCCG
switch fluorescence ratio: 0.983

GACTGAGGAT
switch fluorescence ratio: 1

TTCTCGCGCG
switch fluorescence ratio: 0.981

AAATAAGTAA
switch fluorescence ratio: 0.998

GCCCTAGCA
switch fluorescence ratio: 0.994

GGGGAAAAC
switch fluorescence ratio: 0.955

TATTGCGCCC
switch fluorescence ratio: 1.01

GAGTGGCTTG
switch fluorescence ratio: 0.98

TAAGAATCGA
switch fluorescence ratio: 0.971

CCAACTACCT
switch fluorescence ratio: 1.28

TTAGAGTTCA
switch fluorescence ratio: 0.975

GATTCTGTTT
switch fluorescence ratio: 0.981

GTTTTAGTTC
switch fluorescence ratio: 0.97

TTTGGTATCG
switch fluorescence ratio: 0.984

GTAGCCGGTC
switch fluorescence ratio: 1.06

AGGTACTCCC
switch fluorescence ratio: 1.4

GTAGAAAGAG
switch fluorescence ratio: 0.981

ATGCGAATGT
switch fluorescence ratio: 1.01

CTGTGATGAG
switch fluorescence ratio: 0.949

ATATGAATCC
switch fluorescence ratio: 1.03

GCATATTTGG
switch fluorescence ratio: 0.965

CCATTAAAAC
switch fluorescence ratio: 1.05

GTTGAGATTT
switch fluorescence ratio: 0.937

ACACGACCG
switch fluorescence ratio: 1.15
